Structures are written as SMILES. This is one part of the list.

The test concerns HSkMC (human skeletal muscle cells). Nature of the test: cytotoxicity call (relative viability < 0.9). Conditions: 10 µM.
As to `C[C@H](CO)N1C[C@H](C)[C@H](CN(C)C(=O)C2CCCCC2)Oc2cc(C#C[C@@H](C)O)ccc2S1(=O)=O`, the cytotoxicity call was “inactive”.

On to `CO[C@H]1CN(C)C(=O)c2cc(NS(=O)(=O)CC(F)(F)F)ccc2OC[C@@H](C)N(Cc2nccs2)C[C@@H]1C`, for which the cytotoxicity call is “inactive”.

For the molecule `Nc1nc(=O)c2nc(Br)n([C@H]3O[C@H]4CO[PH](O)(O)O[C@@H]4[C@@H]3O)c2[nH]1`, the cytotoxicity call is “inactive”.

As to `Cn1c(=O)[nH]c2nc[nH]c2c1=O`, the cytotoxicity call is “inactive”.

With `C[C@@H]1CCCCO[C@@H](CN(C)S(=O)(=O)c2cccs2)[C@@H](C)CN([C@H](C)CO)C(=O)c2cc(NC(=O)C3CCCCC3)ccc2O1`, the cytotoxicity call is “inactive”.

As for `CO[C@@H]1CN(C)C(=O)c2ccc(NC(=O)C3CCOCC3)cc2OC[C@H](C)N(Cc2cccnc2)C[C@H]1C`, the cytotoxicity call is “inactive”.

Turning to `CN(C)C(=O)C[C@@H]1CC[C@@H]2[C@@H](COc3ccc(NS(=O)(=O)c4cccc(F)c4)cc3C(=O)N2C)O1`, the cytotoxicity call is “inactive”.

As to `CN(C)C(=O)CN1CCC2(CC1)O[C@H](C(=O)NCc1ccccn1)Cn1ccnc12`, the cytotoxicity call is “inactive”.

For the molecule `COCC#Cc1cnc2c(c1)C(=O)N([C@@H](C)CO)C[C@@H](C)[C@@H](CN(C)C(=O)Nc1cc(F)ccc1F)O2`, the cytotoxicity call was “inactive”.

With `C[C@H]1CN([C@@H](C)CO)C(=O)c2cc(NS(=O)(=O)c3cccs3)ccc2O[C@H]1CN(C)C(=O)Nc1cccc2ccccc12`, the cytotoxicity call was “inactive”.

Take `COC(=O)c1cccc(OC(N)=O)c1`: the cytotoxicity call was “inactive”.

With `Cc1cccn2c(=O)c(-c3nn[nH]n3)cnc12`, the cytotoxicity call was “inactive”.

`C[C@H](CO)N1C[C@H](C)[C@@H](CN(C)C(=O)C2CCOCC2)Oc2cc(-c3ccc(F)cc3)ccc2S1(=O)=O`: the cytotoxicity call is “inactive”.

These data come from the antibiotic and cytotoxicity screens of Wong et al. (2023).
